The source of these data is paper PMC4336329 (PLoS ONE, 2015).

Each structure is given as a SMILES string. Among all 310,000 compounds or so, about 14,000 (4.5%) showed an effect of 50% or more. The effect is printed as a negative number. This is one part of the list.
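Also: peak tail current of the secondary pulse compared with the same well before compound.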

The target in this assay is human ether-à-go-go-related gene (hERG) potassium channel (human, UniProt Q12809). The assay can be described thus: primary screen, population patch clamp on CHO cells stably expressing hERG.
human ether-à-go-go-related gene (hERG) potassium channel, sequence (Q12809 whole entry, looked up): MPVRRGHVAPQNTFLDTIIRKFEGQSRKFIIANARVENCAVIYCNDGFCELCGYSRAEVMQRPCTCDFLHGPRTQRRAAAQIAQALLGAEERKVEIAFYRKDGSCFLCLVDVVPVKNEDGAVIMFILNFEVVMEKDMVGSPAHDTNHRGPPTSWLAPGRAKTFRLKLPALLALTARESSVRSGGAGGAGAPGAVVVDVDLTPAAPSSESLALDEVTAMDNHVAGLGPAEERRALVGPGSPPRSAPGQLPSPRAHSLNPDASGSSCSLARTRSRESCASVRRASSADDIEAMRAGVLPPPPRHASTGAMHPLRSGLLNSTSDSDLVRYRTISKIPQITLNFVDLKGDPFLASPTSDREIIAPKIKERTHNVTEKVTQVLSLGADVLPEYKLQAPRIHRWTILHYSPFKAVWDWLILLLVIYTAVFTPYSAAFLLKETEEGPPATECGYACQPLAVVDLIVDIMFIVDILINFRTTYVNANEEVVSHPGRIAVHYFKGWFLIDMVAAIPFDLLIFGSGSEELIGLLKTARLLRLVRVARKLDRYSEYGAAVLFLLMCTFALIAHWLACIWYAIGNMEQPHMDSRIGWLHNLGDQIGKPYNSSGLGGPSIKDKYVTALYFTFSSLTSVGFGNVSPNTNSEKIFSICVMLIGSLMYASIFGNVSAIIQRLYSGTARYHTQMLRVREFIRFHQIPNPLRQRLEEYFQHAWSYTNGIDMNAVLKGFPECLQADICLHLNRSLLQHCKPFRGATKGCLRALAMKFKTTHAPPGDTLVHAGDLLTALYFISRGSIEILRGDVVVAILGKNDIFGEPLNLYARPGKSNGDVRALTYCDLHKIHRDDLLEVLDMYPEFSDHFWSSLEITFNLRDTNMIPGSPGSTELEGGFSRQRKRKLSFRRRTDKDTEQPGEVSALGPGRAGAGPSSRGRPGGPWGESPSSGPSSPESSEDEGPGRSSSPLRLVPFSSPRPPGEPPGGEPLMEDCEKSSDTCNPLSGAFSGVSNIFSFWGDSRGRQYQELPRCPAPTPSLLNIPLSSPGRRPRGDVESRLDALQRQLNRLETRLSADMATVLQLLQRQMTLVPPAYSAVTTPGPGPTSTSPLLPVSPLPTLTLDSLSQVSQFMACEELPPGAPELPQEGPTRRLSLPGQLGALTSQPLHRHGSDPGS
In the case of `Cc1cc(OCc2cc(C(=O)N(C)C3CCOCC3)no2)cc(C)c1Cl`, the “hERG current change (%, negative = inhibition) at 10uM” value is given as -13.5%.
The result for `COc1ccc(-n2nnnc2SCc2nc(N)nc(N3CCOCC3)n2)cc1` reads 2.6%.
With `CC(C)C[C@H](NC(=O)c1nc[nH]c1C(=O)NC(c1ccccc1)c1ccccc1)C(=O)OC(C)(C)C`, the “hERG current change (%, negative = inhibition) at 10uM” value worked out at 17.6%.
The result for `O=C(O)C1CCCCC1C(=O)NCc1ccncc1` (stereo not drawn) reads 7.51%; that for `CC(=O)c1ccc(NS(=O)(=O)c2ccc3c(c2)CCC(=O)N3)cc1`, 8.49%; that for `O=C(Nc1nc(-c2ccccc2)cs1)C1CCCO1` (stereo not drawn), -20.1%.
The value for `CC(=O)Nc1ccc(-c2cc3ccccc3o2)cc1` was 1.54%; that for `N#Cc1ccccc1OCC(=O)Nc1ccc2c(c1)OCCO2` was 4.25%.
The value for `COc1cc(C(=O)NCc2ccccc2)cc(Br)c1OC` was 7.89%; that for `COc1ccc(CNc2cccc(C)n2)c(O)c1` was -3.24%; that for `Cc1nc2ccccc2c(=O)n1-c1ccc(F)cc1` was -12.1%.
As to `CCOc1ccc2oc(C(=O)NCC3CCCO3)c(C)c2c1` (stereo not drawn), the “hERG current change (%, negative = inhibition) at 10uM” value amounted to 11%.
Consider `COc1ccc(CCNC(=O)C(C)n2nc(C)n3c(cc4occc43)c2=O)cc1OC` (stereo not drawn), for which the “hERG current change (%, negative = inhibition) at 10uM” value was 4.63%.
The result for `Cc1cc(NC(=O)C2CCN(C(=O)c3ccco3)CC2)ccc1Br` reads -24.2%; that for `CN1CCN(CCC(=O)N2c3ccccc3Sc3ccc(C(F)(F)F)cc32)CC1.Cl`, -23.1%.
Take `COc1cc(/C=C(\C#N)C(=O)Nc2cccc3ncccc23)ccc1O`: the “hERG current change (%, negative = inhibition) at 10uM” value is 15.9%.
The result for `COc1ccc(NC(=O)CN(c2ccccc2F)S(=O)(=O)c2ccc(C)cc2)c(OC)c1` reads 11%; that for `O=C(Cc1ccccc1)NCC(=O)OCC(=O)c1ccccc1Cl`, 25.9%; that for `COC(=O)c1ccc(COC(=O)CNC(=O)c2ccco2)cc1`, 17.3%.
The result for `CCNc1nc(NCc2ccccc2)nc(SCC(N)=O)n1` reads -6.42%; that for `O=C(NC1CCCCC1)N1CCN(c2ccc(Cl)cc2)CC1`, -27.8%.
The value for `N#C/C(C(N)=O)=C1/SC(Cc2ccc(F)cc2)C(=O)N1c1ccccc1` (stereo not drawn) was 10.9%; that for `CC1CCCN(C(=O)c2nn(C)c3c2CS(=O)(=O)c2ccccc2-3)C1` (stereo not drawn) was -23.4%; that for `O=C(CSc1nnc(CNC(=O)C23CC4CC(CC(C4)C2)C3)n1-c1ccc(F)cc1)Nc1ccccc1` was 9.59%.
As to `O=C(NCCCN1CCOCC1)C(=O)NCC1OCCN1S(=O)(=O)c1ccc(F)cc1` (stereo not drawn), the “hERG current change (%, negative = inhibition) at 10uM” value was -10.2%.
Regarding `COC(=O)c1ccc(CSc2nc(N3CCOCC3)c3c(c2C#N)CC(C)(C)OC3)o1`, the “hERG current change (%, negative = inhibition) at 10uM” value was -24.8%.
The result for `CCCC(O)(CCC)C(=O)NN(C(=O)CCl)c1cccc(C)c1` reads -0.728%.
The value for `CN(C)C(=O)c1cc(C(=O)c2ccccc2F)c[nH]1` was 17.2%.
The result for `CCN1C(=O)[C@@H]2[C@H](C1=O)[C@@H]1C(=O)Nc3ccccc3C(=O)N1[C@@H]2c1cccc(OC)c1` reads -31.1%; that for `CC(=O)Nc1ccc(N(C(=O)CNC(=O)c2ccco2)C(C(=O)NCC2CCCO2)c2ccccc2)cc1` (stereo not drawn), 3.74%.
On to `O=C(CC1C(=O)N(c2ccccc2)C(=S)N1c1ccccc1)c1ccccc1` (stereo not drawn), for which the “hERG current change (%, negative = inhibition) at 10uM” value is recorded as -4.04%.
For `COc1ccc(CCNc2nncc(=O)[nH]2)cc1OC`, the “hERG current change (%, negative = inhibition) at 10uM” value stood at 2.16%.
The result for `Cc1ccc(S(=O)(=O)NC(=NCC(=O)O)c2ccc(F)cc2)cc1` reads 17.6%.
Take `CN(CCOc1ccc(Cl)cc1)c1ccc(S(=O)(=O)N2CCCCC2)cn1`: the “hERG current change (%, negative = inhibition) at 10uM” value is given as -10.3%.
The value for `Oc1cccc2ccc(/C=C/c3ccc(Br)s3)nc12` was 4.6%; that for `CCOC(=O)/C=C/C(=O)OCC(=O)Nc1ccc(Cl)cn1` was 1.69%.
The result for `COc1cc2nc(SCc3ccc(Cl)cc3Cl)n(Cc3cccs3)c(=N)c2cc1OC` reads 10.5%.
The value for `CCC1(C)Cc2ccccc2-c2nc(SC)[nH]c(=O)c21` (stereo not drawn) was 23.8%; that for `CCOC(=O)NC(Nc1ncccn1)(C(F)(F)F)C(F)(F)F` was 4.78%; that for `CSC1=N/C(=C\c2c(F)cccc2Cl)C(=O)S1` was -17.5%.
As for `CCOC(=O)COc1nc(-c2ccccc2)cc(-c2ccco2)c1C#N`, the “hERG current change (%, negative = inhibition) at 10uM” value is recorded as 10.1%.
The value for `CCOc1ccccc1N1CCN(C(=O)c2cc3c(s2)CCC3)CC1` was -17.5%; that for `COc1ccc(OC(=O)c2cccnc2)cc1` was 6.06%.
As for `COc1cc(S(=O)(=O)N2CCN(Cc3ccccc3)CC2)ccc1Br`, the “hERG current change (%, negative = inhibition) at 10uM” value is -7.09%.
The value for `C/C(=N\NC(=O)Cc1ccc(Cl)c(Cl)c1)c1cccnc1` was -12.9%.
The value for `Cc1nn(C(C)C(=O)NCC2CCCO2)c(=O)c2c1sc1ccccc12` (stereo not drawn) was -4.42%; that for `CC(=O)N1CCN(c2ccc([N+](=O)[O-])c(-n3nc(C)cc3C)c2)CC1` was -51.9%; that for `CCN(c1ccccc1)S(=O)(=O)c1ccc(NC(=O)c2nc(S(C)(=O)=O)ncc2Cl)cc1` was 8.95%.
The value for `Cc1ccc(-n2ccnc2SCC(=O)O)cc1C` was -4.84%.
Take `CSc1nc(-c2ccccc2)nn1S(=O)(=O)c1ccccc1`: the “hERG current change (%, negative = inhibition) at 10uM” value was 7%.
Take `COC(=O)C1=C(c2cccc(OCc3ccccc3)c2)C[C@@H]2CC[C@H]1N2C(=O)NC1CCN(Cc2ccccc2)CC1`: the “hERG current change (%, negative = inhibition) at 10uM” value was -40.2%.
The result for `CCC(=O)N1CCc2cc(Br)cc(S(=O)(=O)N3CCCC(C(=O)NC(C)(C)C)C3)c21` (stereo not drawn) reads -13.1%.
With `Clc1ccc2c(c1)-c1[nH]ncc1CS2`, the “hERG current change (%, negative = inhibition) at 10uM” value is -29.3%.
The value for `COC(=O)c1c(NC(=O)Cc2ccc(OC)c(S(=O)(=O)N3CCOCC3)c2)sc(C)c1C` was -1.18%; that for `COc1ccc2cc3cc(C(=O)NC4CC4)sc3nc2c1` was 10.6%; that for `Cc1ccc(OCC(=O)Nc2ccc(N3CCN(S(C)(=O)=O)CC3)cc2)cc1` was 17.4%.
The result for `C=C(C)Cn1c(SCCN2CCOCC2)nc2c1c(=O)[nH]c(=O)n2C` reads -4.61%.
The value for `Cn1c(=O)c2c(nc(SCc3ccc(C(=O)O)cc3)n2C)n(C)c1=O` was 12.6%; that for `COc1ccc(S(=O)(=O)NCC2CCCO2)cc1Cl` (stereo not drawn) was -3.2%.
On to `COc1cccc(C2C(C(N)=O)=C(C)Nc3nc(CCCO)nn32)c1` (stereo not drawn), for which the “hERG current change (%, negative = inhibition) at 10uM” value worked out at 22.2%.
The value for `Cc1cc(NC(=O)Nc2ccc(OCc3ccccc3)cc2)n(C)n1` was 23.8%; that for `CC1(C)CC(=O)C2=C(C1)OC(N)=C([N+](=O)[O-])C2c1ccc(C#N)s1` (stereo not drawn) was -37.1%.
The result for `Cc1noc(C)c1C(=O)OCC(=O)Nc1cc(Cl)ccc1Oc1ccccc1` reads -13.9%.
The result for `Cc1cccc(NC(=O)CCn2c(=O)oc3ccccc32)c1` reads 8.31%.
`COc1ccc(/C=C/C(=O)c2c(C)cc(C)[nH]c2=O)c2ccccc12`: the “hERG current change (%, negative = inhibition) at 10uM” value turned out to be 8.8%.
The value for `COCCN(C(=O)COC(=O)CSc1ccccc1)c1c(N)n(Cc2ccccc2)c(=O)[nH]c1=O` was 11.5%.
The value for `Cc1nc2cc(NC(=O)NC(C)(C)C)ccc2n1C` was 8.68%.
In the case of `Cc1ccc(C)c(NC(=O)NNC(=O)c2ccc3ccccc3c2O)c1`, the “hERG current change (%, negative = inhibition) at 10uM” value was 11.4%.
The result for `COc1ccc(NC(=O)Cc2csc(NC(=O)Nc3ccccc3OC)n2)c(OC)c1` reads -4.63%.
The result for `CC(C)[NH+]1CCC2(CC1)C(C#N)=C(N)NC([S-])=C2C#N` reads -4.59%; that for `Cc1cc(=O)[nH]c(-c2ccccc2O)n1`, -14.2%; that for `COc1ccc2cc3cc(C(=O)N4CCCCC4C)oc3nc2c1` (stereo not drawn), -9.8%.
The result for `C#CCOCCOCCOCCNc1nc(N2CCN(C(=O)Cn3cc(CCC[NH+]=C(N)N)nn3)CC2)nc(N2CCN(C(=O)[C@H](C(C)C)n3cc(CCO)nn3)CC2)n1.[Cl-]` reads 11.3%; that for `O=C(NC1(C(F)(F)F)C(=O)Nc2c1c(=O)[nH]c(=O)n2-c1ccccc1)c1ccncc1` (stereo not drawn), 3.53%.
Consider `CCN(CC(=O)N(CC(C)C)c1c(N)n(CC(C)C)c(=O)[nH]c1=O)Cc1nc2ccccc2c(=O)[nH]1`, for which the “hERG current change (%, negative = inhibition) at 10uM” value amounted to 14.1%.
The result for `COc1cc2c(cc1OC)C(C)=NCC2` reads 8.28%.
With `CCCC(=O)Nc1nnc(SCC(=O)NCc2cccs2)s1`, the “hERG current change (%, negative = inhibition) at 10uM” value was 8.39%.
The value for `C=CCC1Cc2c(Br)cccc2C(CC=C)N1` (stereo not drawn) was -7.3%; that for `Cc1ccc(N2CCN(C(=S)c3ccc(-c4cccc([N+](=O)[O-])c4)o3)CC2)cc1` was 13.8%.
The value for `COc1ccccc1NC(=O)c1cc(OC)c(OC)cc1[N+](=O)[O-]` was 4.44%; that for `COc1ccccc1-c1coc2cc(OC(=O)N3CCOCC3)ccc2c1=O` was -3.27%; that for `c1cncc(-c2nn3c(Cn4cnc5ccccc54)nnc3s2)c1` was -19.8%.
For the molecule `Cc1ccc(-c2nc(CS(=O)CC(=O)NCCN3CCCC3)c(C)o2)cc1` (stereo not drawn), the “hERG current change (%, negative = inhibition) at 10uM” value was -5.74%.
The value for `CCOc1ccccc1N1CCN(C(=O)NCc2ccc(Cl)cc2)CC1` was -14.6%.
The value for `CCOc1ccc(NC(=O)c2ccc(CSc3nnc(C)s3)cc2)cc1` was 2.93%.
Turning to `COc1ccc(Cl)c2sc(N(Cc3cccnc3)C(C)=O)nc12`, the “hERG current change (%, negative = inhibition) at 10uM” value is on record as 13.2%.
The result for `O=C(CN1CCN(CC(=O)Nc2ccc(F)cc2)CC1)NCC1(N2CCOCC2)CCCCC1` reads -73.4%.
